This note sets out measurements from PubChem BioAssay AID1240 (Sanford-Burnham Center for Chemical Genomics, 2008).

About 800 (1.6%) of roughly 50,000 compounds showed an effect of 50% or more. The list shows a part of the results.

In this test the target is Bcl-2-like protein 10 (Homo sapiens) (UniProt Q9HD36). Nature of the test: TR3 peptide-Bcl-B binding displacers, biochemical primary FP assay, phenotype converters (AID 1240).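 Also: 0% = Bcl-B with tracer peptide and DMSO and 100% = tracer peptide lacking Bcl-B.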 To be noted: GST-Bcl-B / FITC-TR3 peptide fluorescence polarization; stronger effect = higher value; compound at 3.75 mg/L. (In fluorescence polarisation assays a small probe gives low polarisation when free and higher when bound to something large.)
Chain of UniProt Q9HD36 (Q9HD36 whole entry, looked up): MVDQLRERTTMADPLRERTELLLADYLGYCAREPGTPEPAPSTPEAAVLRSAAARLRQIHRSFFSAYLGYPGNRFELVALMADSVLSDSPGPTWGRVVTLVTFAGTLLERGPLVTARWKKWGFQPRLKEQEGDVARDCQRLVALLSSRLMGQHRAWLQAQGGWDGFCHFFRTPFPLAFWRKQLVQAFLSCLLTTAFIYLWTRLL
Regarding `COc1cc2ccccc2cc1C(=O)Nc1ccc(F)c([N+](=O)[O-])c1`, the displacement was -0.4%.

For the molecule `O=C1c2ccccc2C(=O)c2c(NC(=O)C3CC4CCC3C4)cccc21` (stereo unspecified), the displacement is -7.7%.

As for `CCS(=O)(=O)c1nc2ccc([N+](=O)[O-])cc2s1`, the displacement is -7.2%.

As for `CCOc1cc(OCC)cc(C(=O)Nc2cccnc2)c1`, the displacement is -8.3%.

For `O=C(c1ccc(C#CC2(O)CCCCC2)cc1)N1CCN(c2cccc(Cl)c2)CC1`, the displacement is -6.5%.

As for `C=C(C)CSc1nc2sc3c(c2c(=O)n1Cc1ccccc1)CCC3`, the displacement is -5%.

As for `CCOc1ccc(NC(=O)c2c(NC(=O)COc3ccccc3)sc3c2CCC3)cc1`, the displacement was -3%.

Consider `COc1ccc(CNC(=O)C(=O)NCc2ccccc2)cc1`, for which the displacement was 8.9%.

As for `O=C(Nc1ccccc1O)c1ccccc1I`, the displacement was -2.2%.

On to `OC1CC(c2ccccc2)NC2(CCCC2)C1` (stereo unspecified), for which the displacement turned out to be 4.5%.

Regarding `O=[N+]([O-])c1cccc(CN2CCN(S(=O)(=O)c3ccccc3)CC2)c1`, the displacement was determined as 3.2%.

In the case of `O=C(NCCC1=CCCCC1)c1ccc(Cl)c([N+](=O)[O-])c1`, the displacement was -3.7%.

In the case of `COc1ccccc1CNC(=O)c1ccc(C)cc1`, the displacement is -13.5%.

Consider `COc1cc(NC(=O)c2c(Cl)cccc2Cl)c(OC)cc1Cl`, for which the displacement came out at 11.4%.

In the case of `CCN(CC)S(=O)(=O)c1ccc(NC(=O)c2ccco2)cc1`, the displacement is -5.1%.

Turning to `CC(=O)Nc1ccc(S(=O)(=O)Nc2ccc(S(=O)(=O)N3CCCCC3)cc2)cc1`, the displacement is -10.6%.

For the molecule `CC(C)C(=O)Nc1ccccc1C(=O)Nc1ccc(C(=O)O)cc1`, the displacement is 10.5%.

Consider `COc1ccccc1NC(=O)CSC(N)=O`, for which the displacement is 6.3%.

Consider `O=C(NC(NC(=S)Nc1ccccc1[N+](=O)[O-])C(Cl)(Cl)Cl)c1ccco1` (stereo unspecified), for which the displacement turned out to be 6.5%.

Regarding `COc1ccc(/C=C/C(=O)NC(=S)Nc2ccc(C(C)=O)cc2)cc1`, the displacement came to 7.4%.

On to `O=C(c1nn2c(c1Cl)NC(c1cccs1)CC2C(F)(F)F)N1CCN(C(c2ccccc2)c2ccccc2)CC1` (stereo unspecified), for which the displacement turned out to be 11.8%.

As for `CC1=C(C(=O)Nc2ccc(Cl)cc2)C(c2ccccc2)NC(=S)N1` (stereo unspecified), the displacement was 6.5%.

Turning to `COc1ccc(OC)c(/C(C)=N\NC(=O)c2cccnc2)c1`, the displacement was -8.4%.

`O=C(Nc1ccc([N+](=O)[O-])cc1)C1C(c2ccccc2)C1(Cl)Cl` (stereo unspecified): the displacement came to 4.5%.

As to `C/C(=N\NC(=O)c1cc(C23CC4CC(CC(C4)C2)C3)[nH]n1)c1ccc(N)cc1`, the displacement was -8.7%.

For the molecule `CCc1ccccc1NC(=O)CN(c1ccc(OC)c(Cl)c1)S(C)(=O)=O`, the displacement worked out at 9%.

As to `COc1ccc(N(CC(=O)Nc2ccccc2Cl)S(C)(=O)=O)cc1`, the displacement came out at 3%.

Consider `CCOC(=O)c1c(NC(=O)c2ccc(OC)cc2)sc2c1CCC2`, for which the displacement is -1.1%.

On to `CC1(C)CC(NCCC#N)CC(C)(C)N1`, for which the displacement came out at 3.4%.

As for `Cc1ccc2nc(SCc3ccc([N+](=O)[O-])cc3)nc(C)c2c1`, the displacement is -7.5%.

For `CN1CCN(C(=O)/C(=C/c2ccc(Cl)cc2)NC(=O)c2ccccc2)CC1`, the displacement was -6%.
